Consider 112 molecules from PubChem BioAssay AID488969 (Vanderbilt High Throughput Screening Facility, 2010).

Whole data set: some 110,000 compounds, median “z-score” near -0.1, cut for the highest 2% near 2. Some of the results follow. The source made the active and inactive calls.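 Rule for the calls: active = z-score in the third read window above 3 or below -3; inactive = the rest.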

The target of this test is Metabotropic glutamate receptor 8 (Rattus norvegicus) (UniProt P70579). Description: mGluR8 Gi/Go-coupled signaling modulation – cell-based, rat, thallium flux, HTS, primary screen (AID 488969). To be noted: HEK293 rat mGluR8, GIRK (G protein-gated inwardly rectifying potassium channel) thallium flux, FluoZin2; at 10 µM; stronger effect = higher value; submaximal glutamate (EC20) added with thallium.
Chain of UniProt P70579 (P70579 whole entry, looked up): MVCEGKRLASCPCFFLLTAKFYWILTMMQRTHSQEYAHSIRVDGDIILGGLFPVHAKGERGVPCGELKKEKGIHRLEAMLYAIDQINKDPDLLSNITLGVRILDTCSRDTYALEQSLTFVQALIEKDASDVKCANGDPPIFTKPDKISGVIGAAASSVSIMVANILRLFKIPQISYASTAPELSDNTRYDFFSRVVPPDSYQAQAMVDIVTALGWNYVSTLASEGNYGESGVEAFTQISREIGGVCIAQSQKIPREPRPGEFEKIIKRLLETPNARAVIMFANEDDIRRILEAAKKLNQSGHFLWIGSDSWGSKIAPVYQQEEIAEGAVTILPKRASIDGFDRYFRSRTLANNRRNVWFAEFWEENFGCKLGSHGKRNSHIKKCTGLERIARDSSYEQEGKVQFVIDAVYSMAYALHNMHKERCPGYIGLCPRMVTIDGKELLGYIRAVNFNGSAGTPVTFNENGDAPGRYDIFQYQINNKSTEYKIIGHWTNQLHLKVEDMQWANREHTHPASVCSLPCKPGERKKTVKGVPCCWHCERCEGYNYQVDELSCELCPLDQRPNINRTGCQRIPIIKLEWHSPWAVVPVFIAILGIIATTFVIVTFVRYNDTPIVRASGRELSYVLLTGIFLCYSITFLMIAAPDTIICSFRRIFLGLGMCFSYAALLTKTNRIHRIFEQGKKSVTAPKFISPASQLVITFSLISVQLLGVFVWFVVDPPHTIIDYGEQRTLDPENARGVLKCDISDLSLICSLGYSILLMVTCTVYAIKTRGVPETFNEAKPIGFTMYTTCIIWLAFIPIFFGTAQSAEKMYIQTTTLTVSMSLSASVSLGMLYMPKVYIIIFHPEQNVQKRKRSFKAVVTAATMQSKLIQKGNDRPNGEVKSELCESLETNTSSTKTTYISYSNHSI
In turn, `CN1C(=S)SC(N(O)C=C2C=CC(=O)C=C2)C1(C)C` (configuration not stated) displayed a z-score of -0.214. `COc1ccc2c(c1)nc(SCC(C)O)n2C` (configuration not stated): the z-score was -0.199.

For `O=c1c(S(=O)(=O)c2ccc(Cl)cc2)cn(Cc2ccccc2F)c2ccc(F)cc12`, the z-score is -0.124. `Cc1cc(NC(=O)CSc2nc3ccccc3c(=O)n2C2CCCC2)no1`: the z-score was -0.447. `CCc1ccc(-c2nc(CCl)cs2)cc1` registered a z-score of -0.153. `CCc1ccc(Oc2cc(C)nc(N)n2)cc1` had a z-score of -1.24. Consider `Cc1cc(C)c(C#N)c(SCc2nnc(-c3ccccc3)o2)n1`, for which the z-score is -0.765.

`CCn1c(SCC(=O)Nc2ccccc2)nc2c1c(=O)n(C)c(=O)n2C` yielded a z-score of -0.188.

`Cc1ccc(C)c(OCC(=O)Nc2ccc3c(c2)OCO3)c1C` showed a z-score of 1.06. With `O=C1C2CCCCC2C(=O)N1c1cccc(OS(=O)(=O)c2ccccc2)c1` (configuration not stated), the z-score was -0.275. In the case of `Cc1ccc(NC(=O)c2ccc(CSc3nccc(C)n3)cc2)cc1`, the z-score is -0.0401.

In turn, `CCn1c(SCC(=O)Nc2nc(C)c(C)s2)nnc1-c1cccs1` registered a z-score of 1.03. `CCOC(=O)/C(=N/Nc1ccccc1)Sc1nnnn1-c1ccc(C)cc1` returned a z-score of -0.485. With `CCOC(=O)C1CCN(C(=O)c2ccccc2NS(=O)(=O)c2ccc(F)cc2)CC1` the figure was -0.0607. As to `O=C(N/N=C1\CCc2ccccc21)c1ccccc1Cl`, the z-score was -0.225.

For the molecule `Cc1cccc(NC(=O)c2ccc(N(C)C3CCCCC3)c([N+](=O)[O-])c2)n1`, the z-score was -0.132. Molecule `COc1ccccc1NC(CC(=O)c1ccccc1)C(=O)OCC(=O)c1ccc(C)cc1` (configuration not stated) had a z-score of -0.389. For `O=C(/C=C/c1ccc2c(c1)OCO2)NCCSCc1ccc(Cl)cc1`, the z-score was -0.407.

As to `CCCc1c(C)nc2c(Br)cccc2c1Cl`, the z-score came out at 1.04. As to `COc1ccc(/C=N/NC(=O)CCc2n[nH]c(=O)[nH]c2=O)cc1O`, the z-score was -0.27. In turn, `CCCN(c1ccc(C(C)C)cc1)S(=O)(=O)c1c(C)[nH]c(=O)[nH]c1=O` registered a z-score of -0.622. Molecule `CCOC(=O)/C(=N\Nc1cc(Cl)ccc1Cl)N1CCN(CC)CC1` registered a z-score of -0.196. Consider `CC(C)(C)N(Cc1ccccc1)C(=O)CSc1nc2ccccc2c(=O)[nH]1`, for which the z-score is -0.331.

As for `COc1ccc(C(=O)NCCNC(C)=O)cc1S(=O)(=O)NCc1ccc(Cl)cc1`, the z-score was -0.0319. For the molecule `Cc1ccccc1Nc1nc(Nc2ccccc2C)nc(SC2=NCCS2)n1`, the z-score was 0.438. To `CCN1C(=O)N(c2ccc(Cl)cc2)C(C)=CC1(C)C` belongs -0.57; to `O=[N+]([O-])c1ccc(-c2ccc(C=Nc3cccc4ccccc34)o2)cc1`, -0.156; to `CCOc1ccc(N(CC(=O)NC2CCCC2)S(=O)(=O)c2c(C)noc2C)cc1`, -0.0448. With `CCOCCn1c(CN2CCC(Cc3ccccc3)CC2)nc2c1c(=O)n(C)c(=O)n2C` the figure was -0.268; with `Cc1ccc(N(CC(=O)Nc2ccc(C)cn2)S(=O)(=O)c2c(C)nn(C)c2C)cc1`, -0.867. To `COc1ccc(C(CNC(=O)c2cc(=O)[nH]c3ccccc23)N2CCCC2)cc1` (configuration not stated) belongs 0.635; to `CC(C)CC(NC(=O)C1CCC(C)CC1)C(=O)NCc1ccccn1` (configuration not stated), -1.27; to `Cc1csc(N2CCc3ccccc32)n1`, 0.0477. For the molecule `O=C(OCC1CC(c2ccccc2)=NO1)c1ccc(Cl)cc1` (configuration not stated), the z-score is -0.0879. In the case of `O=C(NCc1nnc(SCc2ccc(C(F)(F)F)cc2)n1-c1ccccc1)C12CC3CC(CC(C3)C1)C2`, the z-score was -0.166.

`COC(=O)c1cccc(NC(=O)CCc2ccccc2)c1` yielded a z-score of -0.143. In turn, `Cc1ccccc1C(=O)NNC(=S)Nc1cccc(C(F)(F)F)c1` returned a z-score of -0.0547.

On to `CSc1nc(NC(C)=O)nc(C)c1Br`, for which the z-score came to 0.499.

`CC12c3ccccc3C(c3ccccc31)C1C(=O)N(Cc3cccnc3)C(=O)C12` (configuration not stated) had a z-score of -0.146. As for `Cc1sc2nc(SC(C)C)nc(N)c2c1C`, the z-score was 0.466. The molecule `O=c1c2cnn(-c3ccc(F)cc3)c2ncn1Cc1ccc(F)cc1` showed a z-score of 0.631. In the case of `COc1ccc(-c2nnc(-c3ccc(N)cc3)o2)cc1`, the z-score came out at 0.096. The molecule `Cn1c(=O)c2c(ncn2CC(=O)N2CCc3ccccc3C2)n(C)c1=O` gave a z-score of -0.486. With `O=C(NCc1cccnc1)c1ccccc1[N+](=O)[O-]` the figure was -0.0931; with `COc1ccc(-n2nc(C(=O)NCC(=O)Nc3cccc(C)n3)c3ccccc3c2=O)cc1`, -0.275; with `O=C(Nc1ccc(Cl)cc1)N(Cc1nc2ccccc2c(=O)[nH]1)Cc1cccs1`, -0.151. The molecule `CC(C)CC(=O)NC(=S)Nc1ccc(NC(=O)c2cccs2)cc1` showed a z-score of -0.132. As to `Cc1cc(C)nc(NS(=O)(=O)c2ccc(NC(=O)COc3ccccc3)cc2)n1`, the z-score is -0.333. `CCOC(=O)c1c(-c2ccccc2Cl)cn2ccccc12` returned a z-score of -1.07.

`CCc1cccc(NC(=O)CN(C)S(=O)(=O)c2cnc[nH]2)c1` yielded a z-score of 1.29. With `CN(CC(=O)Nc1ccc(F)c(Cl)c1)S(=O)(=O)c1cccc2nsnc12` the figure was 0.992; with `Cc1cccc(-c2noc(CCCOc3ccc(Cl)cc3Cl)n2)c1`, -0.125. Regarding `CC1CN(CC(=O)c2c(N)n(Cc3ccccc3)c(=O)n(C)c2=O)CC(C)O1` (configuration not stated), the z-score was 0.178. Consider `COc1ccc(-c2noc(CN(C(=O)C(C)(C)C)C(C)C)n2)cc1`, for which the z-score amounted to 0.401. Turning to `CCn1c(/C=C/N(C)c2ccccc2)[n+](CC)c2ccc(Cl)cc21`, the z-score was 0.51. As for `CC1CCCN(C(=O)c2ccc3c(=O)n(Cc4ccc5c(c4)OCO5)c(=S)[nH]c3c2)C1` (configuration not stated), the z-score came out at 0.75.

On to `CCOC(=O)C1CCN(C(=O)c2oc3ccc(S(=O)(=O)N4CC(C)CC(C)C4)cc3c2C)CC1` (configuration not stated), for which the z-score was -1.94. The molecule `COC(=O)c1c(N)n(-c2cc(OC)cc(OC)c2)c2nc3ccccc3nc12` registered a z-score of -0.309.

With `O=C(C1CCC1)N1CCc2cc(S(=O)(=O)NCc3ccco3)ccc21`, the z-score came out at 0.431.

As for `COc1ccc(N(CC(=O)NCC2CCCO2)S(=O)(=O)c2c(C)noc2C)cc1` (configuration not stated), the z-score is -0.0554. In the case of `CC(C)(C)C(=O)NC(=S)NCc1ccccc1`, the z-score is -0.201. With `C/C(=N/NC(=O)c1cnccn1)c1cccs1` the figure was 0.746.

Turning to `CCNC(=S)N/N=C1\CCCCc2ccccc21`, the z-score came out at 1.57. For `COc1ccc(S(=O)(=O)NCc2ccc3c(c2)cc(C)n3C)cc1`, the z-score is -0.259.

In the case of `COc1ccc(NC(=O)CSc2nc(C)cs2)cc1OC`, the z-score was -0.121. As to `C=CCn1c(Cc2csc(N)n2)nnc1SCC(=O)Nc1ccc(C(=O)OCC)cc1`, the z-score was -2.2. To `COc1ccc(S(=O)(=O)NNC(=O)c2cc3c4ccccc4n(C)c3s2)cc1` belongs -0.127. In turn, `CCn1c(/C=C/c2ccccc2)nc2ccccc21` yielded a z-score of -0.168.

With `Cc1ccc(C(=O)NC(c2ccccc2)C(Cl)Cl)cc1` (configuration not stated), the z-score is -0.518. Regarding `Cc1ccc(N=C2CCCN2Cc2ccccc2)c(C#N)c1`, the z-score was active: -3.47. With `COc1ccc(C(=O)NC(=S)Nc2ccc3c(c2)Cc2ccccc2-3)cc1` the figure was 0.991; with `CCOc1ccc(Cl)cc1S(=O)(=O)NCc1cccnc1`, -0.15; with `O=C(Nc1cccnc1Cl)c1cc(-c2ccco2)on1`, -0.123.

As to `C=CCSC1=N/C(=C\c2ccc3c(c2)OCO3)C(=O)S1`, the z-score is -1.51. In turn, `CCCNC(=S)NC1CCCC1` showed a z-score of -0.0285. With `Cc1cccc(NC(=S)NNC(=O)c2ccc(Br)o2)c1` the figure was 1.14; with `O=C1CC(c2ccccc2)CC(O)=C1C=NCCCN1CCOCC1` (configuration not stated), -0.184; with `Cc1ccc(Cn2cc(/C=C/C(=O)O)c(-c3ccccc3)n2)cc1`, -0.0908. `O=C(CCCn1c(SCC(=O)c2ccc(Cl)cc2)nc2ccccc2c1=O)NCc1ccco1` registered a z-score of -0.172. `CN(CC(=O)NCCc1ccccc1)S(=O)(=O)c1cnc[nH]1` registered a z-score of 0.0116. Take `Cc1cccc(N2CC(O)=C(c3nc4ccccc4n3C)C2=N)c1`: the z-score was -0.0977.

As for `CCOC(=O)CSC1=NC(=O)/C(=C\c2ccc(Cl)cc2)S1`, the z-score came out at 0.239. `Cc1cc(Cl)ccc1OCC(=O)Nc1ccccc1CO` showed a z-score of -1.05. The molecule `Clc1ccccc1CSc1ncn(-c2ccccc2)n1` gave a z-score of -0.246.

With `O=C1CC(NNc2ccccc2)C(=O)N1c1cccc(Cl)c1` (configuration not stated), the z-score is -0.117. For `Cc1cc(C(C#N)c2cccc(Cl)c2)n2ncnc2n1` (configuration not stated), the z-score is -0.553. In the case of `O=C(C1CCN(S(=O)(=O)N2CCC3(CC2)OCCO3)CC1)N1CCc2ccccc2C1`, the z-score is -0.437. Turning to `COC(=O)/C=c1\sc2ncnn2c1=O`, the z-score is 0.574. `O=C(COc1ccc(Cl)cc1Cl)NCCCCc1ccccc1` registered a z-score of -0.144. `CCNC(=S)N1CCC(c2nc3ccccc3s2)CC1` displayed a z-score of -0.222. In the case of `Oc1ccccc1C1OCC2(CO1)COC(c1ccccc1O)OC2` (configuration not stated), the z-score was -0.183. With `Cc1cccn2c(=O)c(/C=C(\C#N)S(=O)(=O)c3ccc(Cl)cc3)c(N3CCC(C(N)=O)CC3)nc12`, the z-score is -1.36.

`COc1cc(C(O)P(=O)(OC2CCCCC2)c2ccc(N(C)C)cc2)cc(OC)c1OC` (configuration not stated) yielded a z-score of -0.302. `Clc1ccc2c(N/N=C/c3ccc(Br)cc3)ccnc2c1` came in with a z-score of -0.258. `CC(NC(=O)Cc1ccc(-c2ccccc2)cc1)c1ccccc1` (configuration not stated) displayed a z-score of -0.225. On to `CCOC(=O)c1ccc(NC(=O)N2CCN(Cc3cccc(F)c3)CC2)cc1`, for which the z-score was -0.775. In turn, `CN(C)c1ccc(C2N(c3ccc(Cl)cc3)C(=O)C3CCCN32)cc1` (configuration not stated) gave a z-score of -0.129. `Cc1ccc(S(=O)(=O)N(C)Cc2ccc(-c3nnc4n3CCC4)cc2)cc1` came in with a z-score of -1.14.

Consider `NCCOc1ccccc1Cc1ccccc1`, for which the z-score came to 0.282. `CCCCn1c(/N=C/c2ccc3c(c2)OCO3)nc2ccccc21` had a z-score of -0.738. With `Cc1nnc2n(-c3ccccc3)c(=O)c3c4c(sc3n12)COC(C(C)C)C4` (configuration not stated) the figure was -1.64; with `CN(CCC#N)C(=O)COC(=O)c1ccc(Cl)c(S(N)(=O)=O)c1`, 0.0421.

In turn, `COc1ccc(OC)c(C(O)c2coc3ccc(O)c(CN(C)C)c23)c1` (configuration not stated) registered a z-score of 0.238. With `Cc1[nH]c2ccccc2c1/C=N/Nc1nc(N2CCCCC2)nc(N2CCCCC2)n1`, the z-score was -0.185. `Cc1cc(N2CCCCCC2)nc2ccc(F)cc12` displayed a z-score of -0.101.

The molecule `CCN(CC)CCN1C(=O)C(=O)/C(=C(/O)c2c(C)[nH]c(C(=O)OC)c2C)C1c1ccccc1` (configuration not stated) returned a z-score of -0.0174. Molecule `COc1ccc(C(=O)N(c2ccccc2)C2C=CS(=O)(=O)C2)cc1` (configuration not stated) gave a z-score of -0.344. `COc1ccc(OC)c(NC(=O)CCCN2C(=O)C3C4C=CC(C4)C3C2=O)c1` (configuration not stated) had a z-score of -0.267. In turn, `COc1cccc(NC(=O)c2ccncc2)c1` returned a z-score of -0.356. As for `O=C1C2C3C=CC(C3)C2C(=O)N1CC1CCCO1` (configuration not stated), the z-score was -0.163. `COc1ccccc1OCCNS(=O)(=O)c1ccc2oc3ccccc3c2c1` registered a z-score of 1.18. As to `CCCC(=O)Nc1ccc(C(=O)NN2C(=O)c3ccccc3C2=O)cc1`, the z-score was -0.194.
